Variants at the floor of the assay are shown more often than the library holds them.
B1: TPR 5TU (parent)
chain: GGAUCUUCUCGAUCUAACAAAAAAGACAAAUCUGCCACAAAGCUUGAGAGCAUCUUCGGAUGCAGAGGCGGCAGCCUUCGGUGGCGCGAUAGCGCCAACGUUCUCAACUAUGACACGCAAAACGCGUGCUCCGUUGAAUGGAGUUUAUCAUG

Variants of: B1
Test: polymerase ribozyme fitness, log enrichment relative to wild type (log ratio); higher = more active; in vitro selection for triplet polymerase activity
In short: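 For each subunit of a heterodimeric triplet polymerase ribozyme, a mutant library was built by PCR and transcribed, then taken through a single in vitro selection round in triplicate. Selection involved annealing to a biotinylated primer, the partner subunit and triplets, incubation frozen at −7 °C, gel excision of extended constructs, capture on streptavidin beads and RT-PCR. Genotypes were retained after Illumina sequencing of inputs and outputs only with ≥10 input reads and ≥1 read in each output. Fitness is defined as the logarithm of a genotype's enrichment relative to wild-type enrichment, using inverse-variance-weighted averages across replicates, with the logarithm taken to base 2.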

| Variant | polymerase ribozyme fitness (log ratio) |
| --- | --- |
| A28U A52G C87U C93A U148G U151G | ≤ -4.2 |
| A29C C75U C79A G92U A150G | ≤ -4.2 |
| A28G A40C C75A G86A | ≤ -4.2 |
| A28U A40G C51A G58A C85A C131A | ≤ -4.2 |
| A28U C35A C38U G92C | ≤ -4.2 |
| A28U G74U C85G C116G G141C | ≤ -4.2 |
| A28U G46A G92C C103G G112A C116U A119U A120U C129G U134G | ≤ -4.2 |
| A28G U53A G84U G140A | ≤ -4.2 |
| A28U C69U G133U | ≤ -4.2 |
| A29C A40U G50A A89U C96G A107U U146C A147C | ≤ -4.2 |
| A28U U45A C57U A60C G84U A98U G117C | ≤ -4.2 |
| A28C C51U G58C A73G A97G A107U C118A U146C | ≤ -4.2 |
| A28U G50A A89G C95A A97C U139C A142U | ≤ -4.2 |
| A28G C32G U77G C87A C99A C114A | ≤ -4.2 |
| A28G A29U A52C A91G U127A | ≤ -4.2 |
| A28G A41C C63U C85G G88A U101G U102C A107G | ≤ -4.2 |
| A28C U90C C96A | ≤ -4.2 |
| A29C G46A C75G C108U U111G U146G | ≤ -4.2 |
| A29C A37C G86A | ≤ -4.2 |
| A28U C36G C85G G94A C131G | ≤ -4.2 |
| A28C A41C A64U G88U C95A C105U | ≤ -4.2 |

| Variant | polymerase ribozyme fitness (log ratio) |
| --- | --- |
| A28G C32U A41C C72A A106U G141A G143A | ≤ -4.2 |
| A28G C57G C85A C118A | ≤ -4.2 |
| A28U G46A A52C U53C U55A A89C C99G | ≤ -4.2 |
| A29C A49C U61A A138C | ≤ -4.2 |
| A28C G88A G94A A97C | ≤ -4.2 |
| A28C A52G C103G A115U U148C | ≤ -4.2 |
| A28U A66G G88U A91U | ≤ -4.2 |
| A28C C54U G58A G83A C87A | ≤ -4.2 |
| A29C C57A A60U A66G C95A A110C C114U | ≤ -4.2 |
| A29C A37C A64G C87A C95G U146G | ≤ -4.2 |
| A28U U53G A91U G143C | ≤ -4.2 |
| A28G A39U U53A G71A C93A | ≤ -4.2 |
| A28C C57A A66U G71A C87A U102G A138C | ≤ -4.2 |
| A28G C54U C57G U135C | ≤ -4.2 |
| A29C G59C U78G C85A C95G | ≤ -4.2 |
| A28U U31G C51U U78A | ≤ -4.2 |
| A28U A30U A52G C79A U82C C85A C132U | ≤ -4.2 |
| A29C G46U C87A G126C | ≤ -4.2 |
| A28U C57G C63U G81A G88U C105G C114G U145G | ≤ -4.2 |
| A28U C32U A47G C87G U90C C96G C99U A120G | ≤ -4.2 |
| A29C A41U C85U C93G G136A G140U | ≤ -4.2 |

| Variant | polymerase ribozyme fitness (log ratio) |
| --- | --- |
| A28U U56A G59C U61G G70A A119C U139C | ≤ -4.2 |
| A28U G59U G84C C85G U102G A115G | ≤ -4.2 |
| A28U A47C C63G G86C C129A | ≤ -4.2 |
| A29C C96U A106U U111C U144G | ≤ -4.2 |
| A29C C54U C85G | ≤ -4.2 |
| A28G A115G G124A | ≤ -4.2 |
| A28U C51A C85U A115U G143U | ≤ -4.2 |
| A28C U53G G59C G71A A106G A150U | ≤ -4.2 |
| A28U C32A A52G C57G G83U C108U | ≤ -4.2 |
| A29C C54A C75A G141C G143C | ≤ -4.2 |
| A28U G117A C131A A137U | ≤ -4.2 |
| A28U G42U G94C U102A C149G | ≤ -4.2 |
| A28U G80A A91G C116G | ≤ -4.2 |
| A28U C76A A89G A120U U139C | ≤ -4.2 |
| A28U G42C U55A U56A A60C G62A A97U U102A C105G A121G C123G U146G | ≤ -4.2 |
| A28G G50C U56A U82C U102G | ≤ -4.2 |
| A28C A41U G42A C57U G59A G88C C103U A106C G126A G133A U139G A142C | ≤ -4.2 |
| A28U U53A C116G G124U | ≤ -4.2 |
| A28G A64U C105U A106G A110G | ≤ -4.2 |
| A28C C93G A110U A121U A142G | ≤ -4.2 |
| A28U U33G C43G A47C U55G U56A G84A C87G A106G A107C G133U G140U | ≤ -4.2 |

| Variant | polymerase ribozyme fitness (log ratio) |
| --- | --- |
| A28U U31C U33C G48A G94A | ≤ -4.2 |
| A28C U55G U56A G133U | ≤ -4.2 |
| A28U A49C C93A A120U | ≤ -4.2 |
| A28U C35A C79A C99G | ≤ -4.2 |
| A28U C35U C87A A142C | ≤ -4.2 |
| A29C C76A C87A C99U C105U | ≤ -4.2 |
| A28U U56A C69A U82A A89G C96U C105U G140U | ≤ -4.2 |
| A28U U31G A39U A91U C99G C114U | ≤ -4.2 |
| A28C C93U A98G A107C | ≤ -4.2 |
| A28U C79A C87G C96G | ≤ -4.2 |
| A28U A29U G42A G68C C75A | ≤ -4.2 |
| A28U G62U A89G A150U | ≤ -4.2 |
| A29C C95G | ≤ -4.2 |
| A28C C85G U111G U135C | ≤ -4.2 |
| A29C G48C C79A A122G G124U U144A U145G G152U | ≤ -4.2 |
| A29C A39G U139A | ≤ -4.2 |
| A29C A73C G83A U135G | ≤ -4.2 |
| A28G G50A C75U G92U U109C | ≤ -4.2 |
| A28U C87A C131G | ≤ -4.2 |
| A28C C54U G74A | ≤ -4.2 |
| A28G C38U U61A G67U C85G A98G | -3.98 |

Reference: the RNAGym collection of RNA variant scans (doi:10.1073/pnas.2313332121)
